Measurements taken from the supplement of paper PMC3334620.
Whole data set: some 33,000 sequences, median “E-score (-0.5 to 0.5)” near -0.032, cut for the highest 2% near 0.36. This is one part of the list.

Target: T1, Sko1 (UniProt Q02100)
T1 sequence: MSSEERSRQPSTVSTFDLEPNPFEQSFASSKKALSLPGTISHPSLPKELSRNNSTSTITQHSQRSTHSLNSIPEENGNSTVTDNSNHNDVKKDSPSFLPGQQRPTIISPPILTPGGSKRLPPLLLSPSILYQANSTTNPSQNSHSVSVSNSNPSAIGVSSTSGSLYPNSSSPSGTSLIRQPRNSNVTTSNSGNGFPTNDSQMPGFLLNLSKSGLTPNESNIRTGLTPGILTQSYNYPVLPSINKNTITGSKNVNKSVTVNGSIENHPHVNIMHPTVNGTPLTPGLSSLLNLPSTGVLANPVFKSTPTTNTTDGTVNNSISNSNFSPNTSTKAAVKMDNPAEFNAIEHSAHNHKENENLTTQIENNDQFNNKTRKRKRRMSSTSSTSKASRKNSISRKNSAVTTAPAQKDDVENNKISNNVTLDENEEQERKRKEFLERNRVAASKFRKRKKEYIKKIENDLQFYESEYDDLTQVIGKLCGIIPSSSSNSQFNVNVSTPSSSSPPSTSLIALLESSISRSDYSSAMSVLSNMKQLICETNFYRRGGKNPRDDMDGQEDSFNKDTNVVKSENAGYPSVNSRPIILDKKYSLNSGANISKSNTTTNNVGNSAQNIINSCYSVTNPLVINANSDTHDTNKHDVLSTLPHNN
Experiment: PBM E-score (8-mer binding enrichment) (E-score (-0.5 to 0.5)); higher = stronger / more preferred TF binding; most listed sequences are background and not binding sites
Settings: protein concentration: 200 nM; construct: GST-full length
Protocol: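 Universal 'all 10-mer' protein binding microarrays (Agilent AMADID 015681) probed with GST-tagged S. cerevisiae TFs (full-length or DBD) made by in vitro transcription/translation (PURExpress), about 100-200 nM. Bound TF was detected with fluorescent anti-GST. Each ungapped 8-mer (which stands for itself and its reverse complement) is scored by the PBM enrichment score (E-score), a modified Wilcoxon-Mann-Whitney statistic from -0.5 to +0.5, computed with the Universal PBM Analysis Suite. Scale: above 0.35 generally sequence-specific binding.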

| Sequence | PBM E-score |
| --- | --- |
| AACTCCGA | -0.176 |
| ACTAACAG | 0.0358 |
| ACACAGAG | -0.0374 |
| CCGTTATA | 0.0635 |
| ATGCATTA | 0.26 |
| GATAGCAA | 0.16 |
| AGGACAAT | -0.14 |
| ACTGAGCC | -0.0526 |
| CAGAGAGA | -0.185 |
| AAATCCAA | 0.0927 |
| ATAACTGG | -0.132 |
| GAAGGAGA | 0.0914 |
| CTAGCAAG | -0.209 |
| GGAGAACA | -0.0204 |
| CAAACCTG | -0.0692 |
| GGTAAAAC | 0.157 |
| ACAATCCG | -0.0353 |
| ATGGAGGA | 0.0757 |
| CTGAGCGA | 0.0843 |
| AGGGCGCA | -0.175 |
| GAGGCCTA | -0.097 |
| CACGTATC | 0.393 |
| CAGGGTCA | -0.168 |
| CAAGGTGG | -0.192 |
| CACAACGA | 0.113 |

| Sequence | PBM E-score |
| --- | --- |
| CGCTGCCC | -0.336 |
| CCTTGTGA | 0.014 |
| CGGTTTCA | -0.086 |
| AGAAATTC | 0.00511 |
| AGCTAAGG | -0.176 |
| ACCACCAC | 0.00488 |
| AAATCGCA | 0.0506 |
| CAGTGCCG | -0.107 |
| GCAGATTA | 0.0653 |
| CGGGGTAG | -0.238 |
| AATTATTC | 0.198 |
| GAATCGCC | -0.312 |
| TTGGTAAA | 0.176 |
| AGGCTTCC | -0.0277 |
| CCCGTGAA | -0.159 |
| CGGATGTA | -0.13 |
| AGGAGGCA | -0.291 |
| TGATCTAA | 0.22 |
| GTAGAAAA | 0.148 |
| AGCCGATA | -0.00978 |
| GGTCTGAA | -0.0247 |
| CTTGACTC | -0.276 |
| ACTTACGG | 0.172 |
| ATGAGGCC | -0.157 |
| GCTGTGGA | -0.114 |

| Sequence | PBM E-score |
| --- | --- |
| ACAGACGG | -0.262 |
| AAATGGCC | -0.199 |
| CAAAGGGA | -0.049 |
| TGCGTTAA | 0.157 |
| AGTACCAA | 0.101 |
| CCGGGCCC | -0.204 |
| AGCACGTC | 0.309 |
| ACGGCGGA | -0.268 |
| CACGGTTA | 0.163 |
| CAAATTCC | 0.0969 |
| CCATAGAA | 0.032 |
| AACATCAC | 0.286 |
| GGAATCGA | -0.212 |
| GTATCACA | 0.191 |
| TTACAGAA | -0.0258 |
| AGTCGTGG | -0.168 |
| GAACAAAC | 0.115 |
| ATACACAC | 0.13 |
| ACAGTATG | 0.0478 |
| AGTCCACA | -0.0149 |
| AGCGCCTC | -0.262 |
| CACTTCCA | 0.109 |
| CATATAAC | 0.0712 |
| ACCCCACT | -0.145 |
| CGGGTTCA | -0.146 |

| Sequence | PBM E-score |
| --- | --- |
| AAATGTAT | 0.143 |
| GGTCTTCA | -0.194 |
| CAAGCCGA | -0.00099 |
| AAGCACAG | -0.122 |
| AACATTAT | 0.254 |
| CAGATGTA | -0.0918 |
| GGGGATAA | -0.0543 |
| AAAGCAAC | 0.031 |
| AACAGTCG | -0.00213 |
| TCTAGCCA | -0.0648 |
| CCCTTCGC | -0.283 |
| ACTCCGGG | -0.187 |
| GCCAAGTA | -0.194 |
| CGCTACTA | -0.00771 |
| GCGCTGTA | -0.0815 |
| GCACGAAA | 0.232 |
| ATTCGTGA | 0.258 |
| ACATTGCG | 0.242 |
| AACACCCA | -0.164 |
| GACAATGA | -0.0527 |
| ATCATATC | 0.213 |
| ATAGAGAT | 0.167 |
| GAGTGCCA | -0.312 |
| GCAGCCGA | -0.0383 |
| ATCAACGA | 0.0428 |

| Sequence | PBM E-score |
| --- | --- |
| CAGGACAC | -0.0751 |
| TATAATCA | 0.241 |
| AAATATAT | 0.214 |
| AACAACCG | -0.023 |
| CAAGAATC | 0.0872 |
| CGCAAAAA | 0.152 |
| TGCTGACA | -0.0482 |
| CCCTGCGG | -0.353 |
| AACACTCT | 0.0483 |
| AAAAGTGG | -0.0168 |
| ACAATGTC | 0.0291 |
| AGTACTAT | -0.0967 |
| CCAAATGC | -0.101 |
| ATTACTCA | 0.141 |
| ACTATGCC | -0.0258 |
| TCGGGTCA | -0.115 |
| CGCTATAA | 0.112 |
| AAGCGTGT | -0.0816 |
| ATCCGCCG | -0.0883 |
| AGTTGTTA | 0.0184 |
| AGCCAGTG | -0.181 |
| AGTTAACC | -0.0694 |
| AGGAGCAT | 0.052 |
| CGAGACGC | -0.106 |
| AATACATT | 0.0985 |

| Sequence | PBM E-score |
| --- | --- |
| CGCATAGA | -0.15 |
| CACTTGAA | 0.0535 |
| AAACGCTT | 0.077 |
| TCTTAACA | 0.0969 |
| TATGGCGA | 0.0668 |
| CCCGATGA | 0.0115 |
| ATAGAGAA | 0.0325 |
| ACAGGCAC | -0.0663 |
| CAGTCAAA | -0.00635 |
| CTAATCGA | -0.00313 |
| AATACCGA | -0.25 |
| ACTCTGAA | -0.0554 |
| CGTGACTA | 0.242 |
| CAATGCAG | 0.0232 |
| AGATAAGA | 0.193 |
| AGCGCAGC | -0.321 |
| CTTACAGA | -0.161 |
| ACGTAGGC | 0.425 |
| AGATACCG | 0.0467 |
| ACCTTAGG | -0.188 |
| GGCGTTAC | -0.0443 |
| ACGAAGGG | 0.129 |
| TACTTTCA | 0.0182 |
| CCGTCACA | 0.163 |
| CAATCGTC | 0.22 |

| Sequence | PBM E-score |
| --- | --- |
| CTTACATA | 0.207 |
| AAAGCTCT | -0.223 |
| AACCTATC | -0.186 |
| AGCGGAGG | -0.203 |
| CTTGGCTC | -0.165 |
| CCCCCTTA | -0.31 |
| AGCTTGAC | -0.139 |
| GAATCACA | 0.0598 |
| CCCTACTC | -0.0828 |
| AATCTACA | 0.198 |
| AGTGACAC | 0.191 |
| CGCTTAAC | -0.0195 |
| CAGACGAG | -0.202 |
| CCGCGCAG | -0.0518 |
| CCGTATCG | -0.171 |
| CCGTCGTC | -0.0549 |
| ATTCGCGC | 0.0774 |
| GGGCCACA | -0.261 |
| ATTGAATG | 0.075 |
| GACCGATC | -0.227 |
| AAGGTCCA | -0.266 |
| GTGTTGAA | 0.14 |
